Experimental data as given in PubChem BioAssay (NCI).
Several values for one entry are separate records, joined by “and”; a condition that tells them apart may be missing. Equal values may be shown once.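 Compound exposure: 48 hours, 5 concentrations, 96-well plates. GI50: concentration for 50% inhibition of growth. At the TGI there is no net growth.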

Test system: NCI-H322M lung
Assay: NCI anticancer screen, dose series, 48 h

SMILES	TGI	GI50
CC(O)C(N=Cc1nc(-c2ccccc2)oc1O)C(=O)O (stereo not given)	> 100 µM	–
N#C/C(=C\c1ccc(O)c(O)c1)C(=O)NC1CCC(CC2CCC(NC(=O)/C(C#N)=C/c3ccc(O)c(O)c3)CC2)CC1 (stereo not given)	48 µM	–
COC(=O)[C@]12CC[C@@H](C)[C@H](C)[C@@H]1C1=CC[C@@H]3[C@@]4(C)C(C=O)=C[C@@](C)(COC(=O)c5ccco5)[C@@H]4C(=O)C[C@@]3(C)[C@]1(C)CC2	> 100 µM	14.1 µM
C=CC(C=O)C1(O)CCOC(=O)/C1=C\N (stereo not given)	> 100 µM	> 100 µM
COc1cnc2c(c1)C(=O)c1c-2n(CCCN2CCC(O)CC2)c(=O)c2cc(F)ccc12	4.39 µM	0.387 µM
Cc1ccc(S(=O)(=O)/N=C(\N)N(C)N=O)cc1	> 100 µM	–
CC[C@H](Nc1nc(N)nc(C)c1C#N)c1nc2cccc(NCc3ccc(C(=O)NO)cc3)c2c(=O)n1-c1ccccc1	9.75 µM	2.17 µM
Cc1n[nH]c(=O)n1/N=C/c1cccs1	> 100 µM	–
CCOC(=O)C1=C(C)OC(=O)[C@@]2(OC)C=C(Cl)[C@@]12C	> 100 µM	–
Cc1ccc(/C(=C\C(=O)C(=O)NC23CC4CC(CC(C4)C2)C3)Sc2ccccc2)cc1	> 10 µM	–
CO/N=C(\C)c1cccc(Nc2cc(-c3ccccc3)nc3c(O)cccc23)c1	34.5 µM	10.1 µM
CC(=O)OCC(=O)O[C@@H]1C[C@]2(C(C)C)O[C@@]1(C)[C@@H]1CC[C@@H](C)[C@H]1[C@@H]2OC(=O)/C=C/c1ccccc1	> 83.9 µM	22.4 µM
Cc1ccc(C[P+]2(c3ccccc3)CCCCC2)cc1	> 100 µM	–
O=C(CC(C(=O)c1ccco1)c1cccs1)c1cccs1 (stereo not given)	> 100 µM	–
O=C1c2ccccc2C(=Cc2ccccc2)c2ccccc21	19 µM	4.33 µM
CN(C)c1ccc(/C=C2\N=C(c3ccc([N+](=O)[O-])cc3)OC2=O)cc1	> 100 µM	–
COCc1cc2c(cc1/C(=C/[N+](=O)[O-])CS(=O)(=O)c1ccccc1)OCO2	> 100 µM	–
C/C1=C/C2=CC(C)C[C@@H]2C(=O)[C@]2(C)C(=O)CC(C)(C)[C@H]2CC1=O (stereo not given in full)	> 50 µM	–
C=CCCCC1SC2=C(CC)CCCN2C1=O (stereo not given)	> 100 µM	–
COc1ccc2c(c1)c1c(n2CCN(C)C)-c2cccc(OC)c2CC1	29.9 µM	–
CC(C)(C)c1[nH]cnc1/C=c1\[nH]c(=O)/c(=C/c2ccccc2)[nH]c1=O	48.5 µM	0.0407 µM
NC(N)=NC(P(=O)(O)O)P(=O)(O)O	> 100 µM	–
CCOC(=O)[C@H]1Nc2c(cccc2[N+](=O)[O-])[C@H]2OCC[C@@H]12	> 100 µM	–
C=C1CCCCCCCCCCC12SCCC2CCCCSC (stereo not given)	62.1 µM	–
CC(=O)OC(C)c1cc2c(s1)C(=O)c1scc(C(C)OC(C)=O)c1C2=O (stereo not given)	3.61 µM	–

SMILES	TGI	GI50
C1=Nc2sc3c(c2C2=NCCN12)CCCC3	33.1 µM	–
CCCC[N+](CCCC)=c1ccc2nc3c(C)cc(N(CC)CC)cc3sc-2c1	4.8 µM	0.547 µM
O=C(Nc1ccc(Oc2ccc3nc(NC(=O)c4ccccc4)[nH]c3c2)cc1)Nc1cc(C(F)(F)F)ccc1F	> 25 µM	8.76 µM
O=c1oc2nc(-c3ccccc3)cc(C(F)(F)F)c2n1Cc1ccccc1	> 100 µM	–
CN(N=O)C(=O)N[C@@H](C=O)[C@@H](O)[C@H](O)[C@H](O)CO	> 750 µM	> 750 µM
CCn1c(-c2ccc(F)cc2)nc2c1C(=O)c1ccccc1C2=O	> 100 µM	–
O=C1N(c2ccccc2)C(=O)C2(SC=NN2Cc2ccccc2)N1c1ccccc1 (stereo not given)	> 100 µM	–
Fc1ccc(OCc2nc3cc(C(F)(F)F)ccc3nc2-c2ccccc2)cc1	> 100 µM	–
O=[N+]([O-])c1ccc2c(c1)Nc1c3ccccc3nc3cccc-2c13	> 100 µM	–
CCOc1cc2c(cc1O)/C(=N\O)C[C@@H]1[C@@H]2CC[C@]2(C)[C@@H](O)CC[C@@H]12	> 100 µM	0.0428 µM
O=P(NC12CC3CC(CC(C3)C1)C2)(N1CC1)N1CC1	> 100 µM	–
CCCc1c[nH]c(-c2ccc(-c3cc(CCC)c(C=O)[nH]3)s2)c1	29.7 µM	–
O=c1cccccc1NCCCCCCNc1cccccc1=O	> 100 µM	–
CN(C)CCNC(=O)Cn1cc([N+](=O)[O-])c(=O)c2ccccc21	> 100 µM	–
COc1ccc2c(c1)C(=O)c1c-2c(Nc2ccc(C(C)=O)cc2)nc2ccccc12	> 100 µM	92.6 µM
COC(=O)[C@H]1C[C@H]1NC(=O)C(CC(=O)OCc1ccccc1)NC(=O)OCc1ccccc1 (stereo not given in full)	> 100 µM	–
O=C1C2=Nc3ccccc3C(O)N2c2ccccc21 (stereo not given)	> 100 µM	–
CN1CCN(c2ccc3nc(-c4c(N)c5c(F)cccc5[nH]c4=O)[nH]c3c2)CC1	4.81 µM and > 4.42 µM and 14.5 µM	0.675 µM and 0.411 µM and 0.898 µM
COc1ccc(/C=C2\N=C3Sc4c(nc[nH]c4=O)N3C2=O)cc1	> 100 µM	–
COC(=O)C1=C(C(=O)OC)C23CC1C1C(C(=O)OC)=C(C(=O)OC)C12C1C=CC3C2C(=O)OC(=O)C21 (stereo not given)	> 100 µM	–
O=c1[nH]c(=O)n(C2OC(CO)C(O)C2O)c2ccsc12 (stereo not given)	> 100 µM	–
CCC(=O)N1NC(=O)C(CC)(CC)C1=O	> 100 µM	–
O=C(Nc1cccc(Oc2nnc(Cl)c3ccccc23)c1)Nc1ccc(Cl)c(C(F)(F)F)c1	5.62 µM	1.91 µM
CCN1C(=O)NC(=O)C(C)(N2C(=O)c3c(F)c(F)c(F)c(F)c3C2=O)C1=O (stereo not given)	21.6 µM	7.49 µM
